Assay results published in patent US20160313325A1.

How the values were obtained:
[1] = target: gp41 of pNL-AD87 (Env from the CCR5-tropic clone AD87 in the pNL4-3 backbone) (HIV-1 clone AD87 (subtype B, CCR5-tropic))
[2] = target: gp41 of pNL-Bal (Env from the CCR5-tropic clone BAL2 in the pNL4-3 backbone) (HIV-1 clone BAL2 (subtype B, CCR5-tropic))

Substance T20 (Enfuvirtide, Fuzeon) (peptide) has an IC50 (nM), inhibition of viral replication, deCIPhR cell to cell infection [1] of 63 nM and an IC50 (nM), inhibition of viral replication, deCIPhR cell to cell infection [2] of 10 nM.
